Experimental findings from the supplement of paper PMC10126150 are described below.

Values marked as one replicate rest on one cluster of the flow cell; about a third of the high ones do not repeat.

This series deals with ATP. Put plainly: switch fluorescence ratio, 500 uM ATP over buffer (Cy3 cluster intensity, sum of 5 cycles each) (fold (ratio)); higher = stronger signal-on switching upon ATP binding; sequences stand for … in TCGTCGGCAGCGTCAGATGTGTATAAGAGACAGTTTTTTTTTTTTTTTTTTTTTTTTT…TC. Particulars: aptamer strand: ATP DNA aptamer (quencher-CACCTGGGGGAGTATTGCGGAGGAAGG + anchor), 100 nM annealed; ATP concentration: 500 uM; one replicate. The procedure, abridged: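 For every switch-domain sequence, the fluorescence ratio is the mean of per-cluster values, each being summed target-cycle Cy3 intensity over summed buffer-cycle Cy3 intensity. Clusters outside 100-1000 RFU were excluded. On a modified Illumina MiSeq flow-cell, the Cy3-labelled switching-strand clusters were annealed to 100 nM quencher-labelled ATP aptamer, imaged in selection buffer and then after 15 min with 500 uM ATP at 22 °C. Five such cycles were run, with NaOH stripping and re-annealing between them.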
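Also: ATP exposure 15 min at 22 °C before imaging.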

On to AGACAAGCAA, for which the switch fluorescence ratio is 2.05.

Consider GTTTGATCTC, for which the switch fluorescence ratio came to 0.933.

In the case of ACACGCTGAG, the switch fluorescence ratio came to 1.07.

On to TGCTCTTTGT, for which the switch fluorescence ratio stood at 1.03.

Consider TAAGTCGCTC, for which the switch fluorescence ratio was found to be 0.951.

With TGTATTGGAG, the switch fluorescence ratio is 0.998.

As to GCATAAGAAT, the switch fluorescence ratio came to 1.02.

On to AGTACACTAT, for which the switch fluorescence ratio came to 1.04.

As to TAGCTTCGGG, the switch fluorescence ratio is 0.961.

As for AAGGCAACAT, the switch fluorescence ratio came to 0.976.

As to TATAGCCTAT, the switch fluorescence ratio amounted to 0.976.

As for TAATTTGCGC, the switch fluorescence ratio is 1.01.

On to GACTGCCTCT, for which the switch fluorescence ratio was 0.974.

As to ATTGAGGATT, the switch fluorescence ratio stood at 0.987.

For the sequence AGCGTCTCCC, the switch fluorescence ratio was 2.06.

On to ATGACCACCG, for which the switch fluorescence ratio is 1.02.

GGGCTGGCAA: the switch fluorescence ratio was 1.1.

ATTCAGAA: the switch fluorescence ratio is 1.01.

Regarding GGGAACGAAT, the switch fluorescence ratio came to 1.03.

With TAGCGGTTT, the switch fluorescence ratio came to 0.982.

For the sequence TTGCATACCA, the switch fluorescence ratio was 1.

For AACCGTGGAA, the switch fluorescence ratio was 1.02.

With AACAGTTCAG, the switch fluorescence ratio came out at 0.996.

TTTAATCCTG: the switch fluorescence ratio worked out at 0.982.

With GCCACGCCTG, the switch fluorescence ratio worked out at 0.97.

As to CATCCGTGAA, the switch fluorescence ratio is 3.58.

As to TCACGTTATT, the switch fluorescence ratio amounted to 1.17.

Consider TCGGAAGGGA, for which the switch fluorescence ratio was 0.976.

ATAACATGG: the switch fluorescence ratio is 0.986.

As to CGTGATCGC, the switch fluorescence ratio is 1.05.

Turning to TGGTGATTG, the switch fluorescence ratio amounted to 1.01.

As for ACCTAGGGTC, the switch fluorescence ratio is 1.06.

For the sequence TTCTCCAGAT, the switch fluorescence ratio was 1.09.

With GTAGGTAGGG, the switch fluorescence ratio stood at 0.982.

Turning to GCCATCATAT, the switch fluorescence ratio turned out to be 0.954.

With AATTTACGTC, the switch fluorescence ratio is 0.932.

Consider CTAATAGATG, for which the switch fluorescence ratio stood at 1.03.

With GCCGAGTGTG, the switch fluorescence ratio was found to be 1.

Consider AAAGGGGTA, for which the switch fluorescence ratio is 0.991.

Regarding GTCCGTGCGC, the switch fluorescence ratio was determined as 1.28.

Take CCCGAAAGAG: the switch fluorescence ratio worked out at 1.79.

Turning to ACTAATAACT, the switch fluorescence ratio came out at 1.01.

As to GTGAGGGCAG, the switch fluorescence ratio amounted to 0.985.

With ATGCCTCTTC, the switch fluorescence ratio turned out to be 0.995.

On to TATGCGAATG, for which the switch fluorescence ratio came out at 0.974.

For the sequence TATCGGCGGT, the switch fluorescence ratio stood at 1.

As to TAAGAATA, the switch fluorescence ratio is 0.998.

CCCGGGACGA: the switch fluorescence ratio was 1.04.

Regarding TGAAATCCCG, the switch fluorescence ratio is 0.983.

Regarding TAGACGGGTC, the switch fluorescence ratio came out at 0.987.

With GCCACTTAAC, the switch fluorescence ratio was 1.55.

Take GTAATAATGA: the switch fluorescence ratio came to 0.987.

Consider TTTTCCCGG, for which the switch fluorescence ratio is 1.03.

With TCCTATTGCA, the switch fluorescence ratio came out at 1.27.

For the sequence AGCTAGTGCG, the switch fluorescence ratio worked out at 1.03.

Regarding GAGTTACGGT, the switch fluorescence ratio is 1.01.

With TCCTCTCGG, the switch fluorescence ratio turned out to be 0.975.

For the sequence AAGTACTGCG, the switch fluorescence ratio was determined as 1.

Turning to ACGCGATCAT, the switch fluorescence ratio worked out at 0.967.

As for GATTCGCTTA, the switch fluorescence ratio stood at 1.04.

On to GAGGGACACA, for which the switch fluorescence ratio turned out to be 1.07.

As for AAGATTCTTG, the switch fluorescence ratio stood at 0.988.

As for CACTTTCG, the switch fluorescence ratio was found to be 1.05.

Turning to GAAGCCGGAT, the switch fluorescence ratio stood at 0.941.

For the sequence ATTGCAGCGC, the switch fluorescence ratio came out at 0.99.

Take CTACGGGATG: the switch fluorescence ratio was found to be 1.13.

For TCTATGAGAG, the switch fluorescence ratio is 0.99.

CGCGGTTCTT: the switch fluorescence ratio amounted to 1.07.

On to TTGGATATGA, for which the switch fluorescence ratio came to 1.02.

TCCTGTCGAT: the switch fluorescence ratio was 1.04.

On to TGGGCTGCAT, for which the switch fluorescence ratio is 1.01.

Turning to GCCGTTTTTG, the switch fluorescence ratio was found to be 1.03.

Take GTCAGATTTT: the switch fluorescence ratio was found to be 1.01.

As for ACTTTGGGCC, the switch fluorescence ratio was 1.01.

Consider ACTAGCGAAA, for which the switch fluorescence ratio was determined as 1.01.

As to TCGTACGGAG, the switch fluorescence ratio came to 1.01.

For the sequence AACTGTCAGT, the switch fluorescence ratio was 1.02.

As for CCGGGCGCTA, the switch fluorescence ratio came out at 1.72.

Consider GTCACTTGAA, for which the switch fluorescence ratio came to 1.03.

On to TCGCTGGGGC, for which the switch fluorescence ratio worked out at 1.02.

For the sequence CGGAGAAGCT, the switch fluorescence ratio came out at 1.

On to TGATCGCGAC, for which the switch fluorescence ratio is 1.05.

As for TAGAGGTAGC, the switch fluorescence ratio was determined as 1.04.

In the case of TATGGCCAGA, the switch fluorescence ratio stood at 0.965.

Regarding AGATGTCGCA, the switch fluorescence ratio worked out at 0.98.

For CGGACAGGTA, the switch fluorescence ratio came to 1.

For AGCATTCTGG, the switch fluorescence ratio was determined as 0.958.

TCCGTTTCGA: the switch fluorescence ratio was 1.03.

As for GAAGAATTAG, the switch fluorescence ratio turned out to be 0.96.

With ATAATCATAT, the switch fluorescence ratio came out at 1.01.

Consider CGAACTGGCG, for which the switch fluorescence ratio was found to be 1.14.

AGATATCAGC: the switch fluorescence ratio came to 0.994.

In the case of GGCAAATCCG, the switch fluorescence ratio turned out to be 0.992.

For the sequence CGGACGCGGT, the switch fluorescence ratio amounted to 1.72.

For the sequence CCGGATTTCA, the switch fluorescence ratio stood at 0.994.

Regarding CAGCGGCTCC, the switch fluorescence ratio came out at 1.61.

GTCTAAGGAG: the switch fluorescence ratio was determined as 0.974.

With TAGACAATTC, the switch fluorescence ratio turned out to be 1.07.

For the sequence GTGGTCCGCT, the switch fluorescence ratio was 0.996.

Turning to ACCACCATCA, the switch fluorescence ratio is 1.17.

Take ACGTCGAAGG: the switch fluorescence ratio worked out at 0.981.

Consider TAGCATGTAA, for which the switch fluorescence ratio came out at 1.02.

As for CGTAGGAGGT, the switch fluorescence ratio was found to be 1.03.

With TAAACAGGCA, the switch fluorescence ratio came out at 0.998.

Regarding GAATTAATA, the switch fluorescence ratio came to 1.01.

Regarding GATTGTACAC, the switch fluorescence ratio turned out to be 1.01.

Consider TACGTGGTTC, for which the switch fluorescence ratio was found to be 0.996.

CGCACGTTTT: the switch fluorescence ratio was 1.05.

For the sequence TGGTGGTGAC, the switch fluorescence ratio came out at 0.963.

Consider CGAATAGTGG, for which the switch fluorescence ratio was determined as 0.998.

As to ATAGGAGATT, the switch fluorescence ratio came to 0.977.

As for ATACTTCAAG, the switch fluorescence ratio is 0.979.

On to ACTTCTGGAA, for which the switch fluorescence ratio worked out at 1.12.

CCACCTTATA: the switch fluorescence ratio is 1.12.

Turning to TATTTAAGCG, the switch fluorescence ratio came to 0.985.

With ACATCAGAGT, the switch fluorescence ratio was determined as 0.999.

As to TAGGGAGTGC, the switch fluorescence ratio came out at 1.

Consider ACGGCAAGCC, for which the switch fluorescence ratio was 1.27.

As for TGCGCTACGC, the switch fluorescence ratio stood at 1.03.

On to ATGGCAAATA, for which the switch fluorescence ratio worked out at 1.05.
